# Source: PMC4336329 (PLoS ONE, 2015)
# The whole screen tested about 310,000 compounds, of which about 14,000 (4.5%) showed an effect of 50% or more. The effect is printed as a negative number. The list shows a part of the results.
# Target: human ether-à-go-go-related gene (hERG) potassium channel (human, UniProt Q12809)
# Assay: primary screen, population patch clamp on CHO cells stably expressing hERG
# 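Further: peak tail current of the secondary pulse compared with the same well before compound.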
# human ether-à-go-go-related gene (hERG) potassium channel, sequence (Q12809 whole entry, looked up): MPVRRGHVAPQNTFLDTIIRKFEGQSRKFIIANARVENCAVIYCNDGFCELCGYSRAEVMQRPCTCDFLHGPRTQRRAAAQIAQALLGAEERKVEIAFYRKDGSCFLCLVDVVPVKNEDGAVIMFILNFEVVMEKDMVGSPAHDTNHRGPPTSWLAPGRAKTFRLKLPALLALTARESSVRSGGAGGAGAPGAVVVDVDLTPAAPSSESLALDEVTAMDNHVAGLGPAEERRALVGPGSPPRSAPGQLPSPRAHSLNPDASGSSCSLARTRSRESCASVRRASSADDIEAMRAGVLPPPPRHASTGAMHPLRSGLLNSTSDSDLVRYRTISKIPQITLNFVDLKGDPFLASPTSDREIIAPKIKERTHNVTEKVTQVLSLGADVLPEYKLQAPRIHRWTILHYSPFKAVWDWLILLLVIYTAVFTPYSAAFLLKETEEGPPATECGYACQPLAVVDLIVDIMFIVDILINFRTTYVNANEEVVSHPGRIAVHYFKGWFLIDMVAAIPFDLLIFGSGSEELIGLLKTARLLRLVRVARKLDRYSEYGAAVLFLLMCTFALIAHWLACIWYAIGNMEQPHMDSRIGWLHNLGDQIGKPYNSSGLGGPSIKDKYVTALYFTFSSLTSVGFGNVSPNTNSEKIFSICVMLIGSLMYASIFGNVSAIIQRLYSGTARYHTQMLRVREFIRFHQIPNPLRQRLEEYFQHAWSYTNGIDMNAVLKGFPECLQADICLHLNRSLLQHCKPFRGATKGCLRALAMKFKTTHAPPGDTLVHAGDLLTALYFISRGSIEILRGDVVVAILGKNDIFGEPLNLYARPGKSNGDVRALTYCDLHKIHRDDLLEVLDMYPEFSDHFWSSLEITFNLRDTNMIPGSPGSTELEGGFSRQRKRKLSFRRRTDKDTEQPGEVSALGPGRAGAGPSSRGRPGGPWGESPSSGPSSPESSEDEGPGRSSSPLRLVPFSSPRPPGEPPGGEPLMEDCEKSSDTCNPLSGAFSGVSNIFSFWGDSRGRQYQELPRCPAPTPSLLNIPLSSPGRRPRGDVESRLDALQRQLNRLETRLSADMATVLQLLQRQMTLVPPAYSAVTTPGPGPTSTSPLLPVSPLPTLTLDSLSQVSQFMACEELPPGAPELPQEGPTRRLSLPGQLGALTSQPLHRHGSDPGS
row,Compound,"hERG current change (%, negative = inhibition) at 10uM"
1,CC(C)[C@H](NC(=O)Nc1ccc2c(c1)OCCO2)C(=O)O,8.19%
2,Cc1ccc(CN(C)C(=O)c2cccc(S(=O)(=O)N3CCc4ccccc4C3)c2)o1,-23.8%
3,COc1ccc(OCc2cc(C(=O)N3CCN(CC4CC4)CC3)no2)c(Cl)c1,-48%
4,COc1ccc(NC(=O)COC(=O)C2CC2)cc1S(=O)(=O)N1CCCCC1,-33.2%
5,CCOC(=O)C1=C(C)Nc2ncnn2C1c1cccs1 (centres unmarked),10.1%
6,N#C/C(=C\c1c(N2CCCCCC2)nc2ccccn2c1=O)C(=O)NC1CCS(=O)(=O)C1 (centres unmarked),-4.21%
7,Cc1ccc(C2C(C(=O)c3cccs3)=C(O)C(=O)N2CCN2CCOCC2)o1 (centres unmarked),-7.39%
8,COc1ccc(-c2cc(=O)oc3cc(OCC(=O)NCC4CCC(C(=O)O)CC4)ccc23)cc1 (centres unmarked),8.5%
9,CN1CCN(S(=O)(=O)c2ccc(Cl)c3ccccc23)CC1,-1.62%
10,Cc1nnc(SCC(=O)NC2CCCc3c2cnn3-c2ccc(F)cc2F)o1 (centres unmarked),-1.23%
11,CCc1c(C)nc2ncnn2c1NCCc1ccc(OC)c(OC)c1,-17.1%
12,CC(C)(C)n1cc(C(=O)c2ccccc2)cc1-c1ccccc1,7.52%
13,Cc1ccccc1NC(=S)NC(=O)/C=C/c1ccco1,21%
14,FC(F)(F)c1cccc(N2CCN(Cc3cccnc3)CC2)c1,-8.03%
15,CNCCc1ccccc1,10.6%
16,CC(CN1CCCCC1)OC(=O)c1ccc2c(c1)OCCO2.Cl (centres unmarked),-8.83%
17,CCC(=O)Nc1c(-c2cccs2)c(=O)c2ccccc2n1C,3.56%
18,Fc1cccc2sc(Nc3nnc(-c4ccccc4)o3)nc12,20.5%
19,COc1ccc(Nc2c3c(nc4ccccc24)CCC3)cc1.Cl,-70.9%
20,CC(C)Cc1nc(N2CCC(C(N)=O)CC2)c2nnn(Cc3ccccc3)c2n1,23.4%
21,Cc1ccccc1OCc1nnc(SCC(=O)Nc2ccc3c(c2)oc2ccccc23)n1C,6.62%
22,CC(C)C[C@H](NC(=O)c1nc[nH]c1C(=O)NCc1ccccc1)C(=O)OCc1ccccc1,-7.88%
23,O=C(c1nn(Cc2ccccc2)c(=O)c2ccccc12)N1CCc2ccccc2C1,-29%

row,Compound,"hERG current change (%, negative = inhibition) at 10uM"
1,Cc1ccc(/C(O)=C/C(=O)C(=O)NNC(=O)C(O)(c2ccccc2)c2ccccc2)cc1,14.5%
2,COc1ccc(OC)c(NC(=O)C2C3CCC(C3=C(C)C)C2C(=O)O)c1 (centres unmarked),-3.72%
3,CC(=O)c1c[nH]c2ccc(C)cc2c1=O,-3.43%
4,CCCc1cc(C(=O)N2CCCC(Nc3ccc(C)c(C)c3)C2)n(C)n1 (centres unmarked),1.01%
5,COc1ccc(N2C(=O)C3CCCN3C2c2ccc(C)cc2)cc1 (centres unmarked),7.11%
6,Cc1c(C(=O)Nc2ccccn2)oc2ccc(Br)cc12,-5.13%
7,CC(CN1c2ccccc2Sc2ccccc21)N(C)C.Cl (centres unmarked),-35.6%
8,Cl.O=C(CNC1CCN(Cc2ccccc2)CC1)Nc1ccc(S(=O)(=O)N2CCCCC2)cc1,-69.7%
9,COc1cccc(/C=N/NC(=O)c2ccc3nc[nH]c3c2)c1O,12.6%
10,Cn1c(CNC(=O)c2ccc(Cl)cc2)nnc1SCC(=O)NC1CCCC1,-3.79%
11,CCNC(=O)CN1C(=O)NC(Cc2ccccc2)(Cc2ccccc2)C1=O,-0.689%
12,Cc1ccc2c(c1)nc(-n1nc(C)cc1C)c1nnnn12,-1.26%
13,Cc1cc(N2CCN(S(=O)(=O)c3ccc4ccccc4c3)CC2)n2ncnc2n1,-77.7%
14,CNC(=O)C(NC(=O)Nc1ccc(C)cc1)C(C)(C)C (centres unmarked),9.61%
15,CC(=O)Nc1ccc(NC(=O)CCCn2cnc3ccccc3c2=O)cc1,19.2%
16,Fc1ccc2nc(C(F)(F)F)cc(N3CCOCC3)c2c1,8.72%
17,O=C(O)c1cccc(Sc2cc(Cl)ccc2C(=O)O)c1,12.2%
18,COc1ccccc1-c1noc(-c2ccccc2C(=O)Nc2cccnc2)n1,4.58%
19,O=[N+]([O-])c1ccc(Cl)c2cccnc12,23.6%
20,CCCNC(=O)NS(=O)(=O)c1ccc(Cl)cc1,8.45%
21,CC(/C=N/NC(=O)Cn1cnc2c1c(=O)n(C)c(=O)n2C)=C\c1ccco1,-10.2%
22,Cc1cc(C)c(N2C(=O)C3C4CC(=O)C(c5ccccc54)C3C2=O)c(C)c1 (centres unmarked),3.52%
23,Cc1cnc(C)c(N2CCN(Cc3cn(C)nc3-c3cccc(Cl)c3)CC2)n1,-49.6%

row,Compound,"hERG current change (%, negative = inhibition) at 10uM"
1,CC(=O)c1c(C)[nH]c(C(=O)OCC(=O)Nc2ncc(Cl)c(C)c2Cl)c1C,-4.17%
2,FC(F)(F)c1ccc(Oc2ccc(Cl)cc2Br)nc1,20.1%
3,COc1ccc2nc3oc(C(=O)Nc4ccc(OC)c(OC)c4)cc3cc2c1,10.8%
4,CCc1ccc(N(CC(=O)NC(C)(C)C)C(=O)CCC(=O)Nc2ccccn2)cc1,10.5%
5,CC(Sc1ccc2nnc(-c3ccc(F)cc3)n2n1)C(=O)O (centres unmarked),-3.43%
6,COc1ccc(CNC(=O)C(C)NCc2ccccc2Cl)cc1.Cl (centres unmarked),0.444%
7,COc1ccc(C(=O)/C=C/c2ccccc2OC)c(OC(=O)c2ccc([N+](=O)[O-])cc2)c1,14.9%
8,COc1ccc(CC(=O)N2CCCc3ccccc32)cc1,1.07%
9,O=S(=O)(c1cccc(F)c1)N1CCN(Cc2ccc3c(c2)OCO3)CC1,-35.8%
10,Cc1csc(=O)n1CCC(=O)OCc1nnc(-c2ccccc2)o1,-8.45%
11,CCCCNC(=O)c1onc(CSc2ccc(F)cc2)c1C(=O)NCCCC,-10.2%
12,COC(=O)c1sccc1NC(=O)/C=C/c1ccc(Cl)cc1,-11.2%
13,CCc1ccc2[nH]c(=O)c(C(c3nnnn3CC3CCCO3)N3CCN4CCCC4C3)cc2c1 (centres unmarked),-10.4%
14,O=C(c1cccs1)N1CCCC(c2nc3c(nnn3Cc3ccccc3)c(=O)[nH]2)C1 (centres unmarked),-33.5%
15,COc1cc(OC)cc(C(=O)N[C@H](C(=O)OCC(=O)Nc2cccc(F)c2)C(C)C)c1,-5.55%
16,CNC(=S)N1CCN(c2nc3ccccc3s2)CC1,-11.4%
17,COc1ccc(S(=O)(=O)Nc2cccc(-c3ccc4nncn4n3)c2)c(OC)c1,-40.6%
18,c1coc(-c2nnc(SCc3cn4ccccc4n3)o2)c1,-29.7%
19,Cc1csc(NC(=O)CSc2nnc(Cc3cccn3C)n2CCc2ccccc2)n1,-4.35%
20,COc1cc(NC(=O)c2ccc(C(=O)c3ccccc3)cc2)cc(OC)c1OC,8.62%
21,COc1cccc(CN(CC(=O)NC2CCCCC2)C(=O)c2csnn2)c1,16.2%
22,O=C(NNC(=S)Nc1ccc(Cl)cc1)c1ccccc1OC(F)F,16.7%
23,CCCCN(CCCC)C1=Nc2ccccc2N/C1=C(/C#N)C(=O)OCC,-3.64%

row,Compound,"hERG current change (%, negative = inhibition) at 10uM"
1,COc1ccccc1/C=C/c1nc(S(=O)(=O)c2ccccc2)c(N2CCC(C(N)=O)CC2)o1,-13%
2,CC(C)n1cnc2c(Nc3cccc(Cl)c3)nc(NCCCO)nc21,-49.5%
3,Cn1cnnc1SCC(=O)NCCc1ccccc1,17.1%
4,COc1ccc(CNC(=O)CN2CCN(S(=O)(=O)c3ccccc3)CC2)cc1,-9.14%
5,C/C(=N/OC(=O)c1ccc(C(F)(F)F)cc1)c1oc(C)nc1C,9.14%
6,CCOC(=O)c1c(NC(=O)/C=C/c2ccco2)sc(C)c1C,14.4%
7,NC(=O)C1CCN(C2CC(=O)N(Cc3ccc(N4CCCC4=O)cc3)C2=O)CC1 (centres unmarked),8.18%
8,Cn1c(C(=O)NCCN2CCOCC2)cc2c(=O)n3ccccc3nc21,10%
9,CCOC(=O)c1cc(C(=O)NC(C)c2ccccc2)c(C)[nH]c1=O (centres unmarked),7.6%
10,COc1ccccc1NC(=O)Nc1nc(CC(=O)Nc2ccc(OC)c(OC)c2)cs1,-6.21%
11,CCOC(=O)C1(CCc2ccccc2)CCN(C(=O)C2CCCO2)CC1 (centres unmarked),-13%
12,CN(CC(=O)Nc1ccc(N2CCOCC2)cc1)CC(=O)Nc1cccc(C#N)c1,-13.9%
13,CCOC(=O)C1CCN(C(=O)CSc2ccccc2Cl)CC1,-9.59%
14,COc1ccc(CNS(=O)(=O)c2ccc(-n3cnnn3)c(C)c2)cc1,-15.3%
15,COc1ccc(S(=O)(=O)NCc2cccnc2)cc1,15.6%
16,Cc1ccc(CN2CCN(c3ncccn3)CC2)c(C)c1,-12.9%
17,COc1ccc2oc(C(=O)OCC(=O)NCc3ccco3)c(C)c2c1,-10.1%
18,CCCc1nc(-c2cc3cc(C)ccc3[nH]c2=O)no1,10.2%
19,O=C1CCCN1S(=O)(=O)c1ccccc1,12.5%
20,CC1CC(C)CN(S(=O)(=O)c2ccc3c(c2)oc(=O)n3CC(=O)NCc2cccnc2)C1 (centres unmarked),-17.2%
